Measured values: PubChem BioAssay AID1963576 (National Center for Advancing Translational Sciences (NCATS), 2024)
The whole screen tested about 46,000 compounds, of which about 60 (0.1%) were called active. Inconclusive results (about 3%) are left out. Calls follow the shape of the dose curve; as a rule, active = well fitted inhibition curve with a large enough effect; inconclusive = small, poorly fitted or top-dose-only effect; inactive = no such curve, though single readings can be large or run the other way. The list shows a part of the results.

assay: Primary qHTS assay for Inhibitors of ovarian cancer metastasis using an organotypic tumor microenvironment (TME) model.; also: nearly all actives have a fitted effect of over 65% in size;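 as to activity change, negative = inhibition: plate controls were DMSO wells for no effect and tomatine positive control wells for full effect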; conditions: SKOV3ip1-GFP adhesion/invasion on 3D omental model, fluorescence; series mostly up to 45.8 µM; activity change, negative = inhibition: at the top concentration
Procedure, shortened: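 qHTS, 4-pt dose (0.36-46 umol/L); SKOV3ip1-GFP, 1,200 cells/well, no FBS; primary omental fibroblast/mesothelial co-culture 48 h pre-grown; 2 h RT + 16 h 37 C; PBS wash, 4% PFA; GFP count 488/509 nm.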

Activity change, negative = inhibition, inactive:
O=c1c(=O)n(-c2ccccc2)ccn1Cc1cccc(C(F)(F)F)c1 -5.3%, Cc1ccc(CSc2ncc(Cl)c(C(=O)Nc3nc4ccc(C)cc4s3)n2)cc1 -12.9%, Cc1ccc(N2CC(c3nnc(Cc4ccc(F)cc4)o3)CC2=O)cc1 (configuration not stated) 14.2%, Cc1c(C(=O)Nc2ccccc2Cl)sc2ncnc(N(C)C3CCCCC3)c12 -7.95%, COc1cc(Cl)c(NC(=O)c2cc(CN3CCCC3)on2)c(OC)c1 16.6%, COc1ccc2c(c1)CC(C(=O)Nc1cccc(C)c1C)CO2 (configuration not stated) -5.52%, Cc1oc(-c2ccccc2F)nc1CSCC(=O)NCc1ccccc1 8.66%, COc1ccc(Cn2ccnc2SCC(=O)NC2CCCC2)cc1 -5.41%, CC(CCc1ccccc1)NC(=O)Cn1c(=O)nc(-c2ccccc2F)c2cc(Cl)ccc21 (configuration not stated) 37.4%, CCOC(=O)Cn1c(=O)n(C2CCCCC2)c2nc(-c3ccc(OCC)cc3)nc(C(N)=O)c21 -2.47%, COc1cccc(-n2ccnc2SCC(=O)Nc2ccc(Cl)c(Cl)c2)c1 -2.04%, COC(=O)c1ccc(NS(=O)(=O)c2c(C)nc3sccn3c2=O)cc1 0.537%, COCCOC(=O)c1c(C)oc2c1cc(NS(=O)(=O)c1ccc(Cl)c(C)c1)c1ccccc12 1.91%, Cc1nn(C)c2c1c(C(F)(F)F)cc(=O)n2C(C)C(=O)NCCc1ccc(Cl)cc1 (configuration not stated) 0.987%, Cc1c(-c2cccc(NC(=O)c3ccc(F)c(F)c3)c2)nc2ncccn12 -3.84%, CCOC(=O)c1cnc2c(Cl)c(Cl)ccc2c1NCCN1CCOCC1 4.39%, CNS(=O)(=O)c1ccc(NC(=O)c2cnn3c(C(F)F)cc(-c4ccccc4)nc23)cc1 9.19%, O=c1c(-c2ccc(O)cc2)coc2cc(O[C@@H]3O[C@H](CO)[C@H](O)[C@H](O)[C@H]3O)ccc12 -16.3%, COc1ccc(OCc2ccc(-c3nc(C#N)c(NCc4ccccc4)o3)o2)cc1 -6.87%, Cc1ccc(Oc2coc3cc(OCC(=O)NC4CCCCC4)ccc3c2=O)cc1 0.637%

outcome, inactive:
Oc1c(C(c2ccccc2)N2CCN(c3cccc(Cl)c3)CC2)sc2nc(-c3ccco3)nn12 (configuration not stated), O=C1COc2ccc(-c3cc(-c4ccc(F)cc4)c4c(n3)-c3cc(Cl)ccc3OC4)cc2N1, COc1ccccc1CNS(=O)(=O)c1cc(Br)cc2c1N(C(C)=O)C(C)C2 (configuration not stated), CC(C)c1ccc(NC(=O)C2CCCN(S(=O)(=O)c3cccc4nsnc34)C2)cc1 (configuration not stated), O=C(CSc1nccn1-c1ccc(Cl)cc1)Nc1cccc2ccccc12, COc1ccc(C2CC(=O)c3cnc4c(-c5ccccc5)c(C)nn4c3C2)cc1OC (configuration not stated), CCc1ccccc1NS(=O)(=O)c1ccc2oc(=O)c3ncn(C)c3c2c1
